PubChem BioAssay AID504832 (National Center for Advancing Translational Sciences (NCATS), 2011)
The whole screen tested about 310,000 compounds, of which about 18,000 (5.8%) were called active. Inconclusive results, whose numbers are uncertain, are shown with a selection of clear calls. Calls follow the shape of the dose curve; as a rule, active = well fitted inhibition curve with a large enough effect; inconclusive = small, poorly fitted or top-dose-only effect, or another doubt; inactive = no such curve, though single readings can be large or run the other way. No potency is given beside an inconclusive call; the fits are too rough.

assay: Primary qHTS for delayed death inhibitors of the malarial parasite plastid, 48 hour incubation; conditions: P. falciparum luciferase growth in erythrocytes; series mostly up to 28.7 µM; activity change, negative = inhibition: at the top concentration
Summary of the method: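 A one-generation exposure of luciferase-tagged malaria parasites in RPMI 1640/Albumax erythrocyte culture, 37 C and 5% CO2. Inhibition is inferred from decreased luminescence after adding detection reagent.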
% is scaled to controls: 0 for no effect and ±100 for the full control effect; potency is read from the fitted curve at half-maximal effect; tags tell the direction and shape of the fitted curve.

| SMILES | Potency | activity change, negative = inhibition |
| --- | --- | --- |
| CC1Oc2ccccc2N(CC(=O)NCCc2ccccc2)C1=O (stereo not given) | inconclusive [inhibitor, single point] | – |
| Cc1ccc(-c2cc(C(=O)N3CCCc4ccccc43)no2)cc1 | inconclusive [inhibitor, single point] | – |
| Oc1ccc(/C=N/Nc2ccnc3cc(Cl)ccc23)cc1O | active: 0.657 µM | – |
| CC(OC(=O)C1CC(=O)N(Cc2ccco2)C1)C(=O)Nc1cccc(C#N)c1 (stereo not given) | inconclusive [inhibitor, single point] | – |
| Cc1ccc(OCC(=O)Nc2ccccc2-c2ccccc2NC(=O)COc2ccc(C)cc2)cc1 | inconclusive [inhibitor, single point] | – |
| O=C(NCc1nnc2c(C(F)(F)F)cc(Cl)cn12)c1ccco1 | – | inactive: 16.8% |
| COc1ccc(-c2cc(C(=O)N3CCCC(C(F)(F)F)C3)c3ccccc3n2)cc1OC (stereo not given) | inconclusive [inhibitor, partial curve, poor fit] | – |
| O=C(CSc1ccc(-c2nc3ccccc3[nH]2)cn1)Nc1ccc(S(=O)(=O)NC2CC2)cc1 | – | inactive: -0.272% |
| COc1ccccc1-c1cc(C(F)(F)F)nc(S(=O)(=O)CCCC(=O)N2CCOCC2)n1 | inconclusive [inhibitor, single point] | – |
| COc1ccc(C(C(=O)NCC2CCCO2)N(C(=O)c2snc(C(N)=O)c2N)c2ccccc2C)cc1OC (stereo not given) | active: 11.7 µM | – |
| COc1ccc(-c2coc3cc4oc(=O)cc(-c5ccccc5)c4cc23)cc1F | inconclusive [inhibitor, single point] | – |
| O=C(Nc1ccccc1F)NC1CCCc2ccccc21 (stereo not given) | inconclusive [inhibitor, single point] | – |
| O=C(N/N=C/c1ccco1)C1CC1(c1ccccc1)c1ccccc1 (stereo not given) | inconclusive [inhibitor, partial curve] | – |
| O=C(NCc1cccs1)c1noc2c1CCCCC2 | – | inactive: 111% |
| CCN(CCNC(=O)C1CCN(c2nnc(-n3cccc3)s2)CC1)c1ccccc1 | – | inactive: -24.6% |
| O=C(NCCc1ccc(Cl)cc1)Nc1cccc(Cl)c1 | inconclusive [inhibitor, partial curve] | – |
| NC(=O)C1CCN(C(=O)CNC(=O)c2ccccc2)CC1 | inconclusive [inhibitor, partial curve, poor fit] | – |
| Cc1ccc(S(=O)(=O)N2CCC(C(=O)Nc3nnc(C45CC6CC(CC(C6)C4)C5)s3)CC2)cc1 | inconclusive [inhibitor, partial curve, poor fit] | – |
| CCOC(=O)c1sc2nc(C)nc(N3CCN(c4ncccn4)CC3)c2c1C | – | inactive: 48.9% |
| O=C(Nc1ccncc1)c1ccc(-c2ccccc2)cc1 | – | inactive: -14.4% |
| COc1cccc(CN(C(=O)Cn2nnc(-c3ccccc3F)n2)C(C(=O)NC(C)(C)C)c2ccncc2)c1 (stereo not given) | inconclusive [inhibitor, full curve, poor fit] | – |
| O=C(O)c1cc2c(ccc3ccccc32)o1 | inconclusive [inhibitor, partial curve, poor fit] | – |
| CCc1c(C)sc(NC(=O)c2cc(-c3ccco3)on2)c1C#N | – | inactive: 43.4% |
| COc1cc(CN(CC2CCCO2)C(=O)c2ccco2)cc(OC)c1OC (stereo not given) | inconclusive [inhibitor, partial curve, poor fit] | – |

| SMILES | Potency | activity change, negative = inhibition |
| --- | --- | --- |
| c1nc(NCCN2CCOCC2)c2c3c(sc2n1)CCCCC3 | – | inactive: -12.9% |
| Cc1cc(C)n(-c2cc(N3CCN(C(=O)c4ccc(C(C)(C)C)cc4)CC3)ccc2[N+](=O)[O-])n1 | active: 4.65 µM | – |
| CC(=O)NCc1ccc(-c2csc(N)n2)s1 | – | inactive: 15.6% |
| O=C(NCCC1=CCCCC1)C1CCC(CNS(=O)(=O)c2ccccc2)CC1 (stereo not given) | inconclusive [inhibitor, partial curve, poor fit] | – |
| CCOCCn1c(=NC(=O)CSCC(=O)N2CCOCC2)sc2cc(OC)ccc21 | – | inactive: -29% |
| Cn1c(SCC(=O)N/N=C/c2ccc([N+](=O)[O-])s2)nnc1-c1ccc(Cl)cc1 | active: 10.4 µM | – |
| CN(C)S(=O)(=O)c1cccc(COC(=O)CCNC(=O)c2ccc([N+](=O)[O-])cc2)c1 | inconclusive [inhibitor, single point] | – |
| CC(=O)N1c2ccc(S(=O)(=O)N3CCC(C(=O)NCc4ccc(F)cc4)CC3)cc2CC1C (stereo not given) | inconclusive [inhibitor, partial curve, poor fit] | – |
| Cc1onc(-c2ccccc2Cl)c1C(=O)O/N=C(\N)c1ccccc1 | inconclusive [inhibitor, full curve] | – |
| COC(=O)C1=C(C)NC(C)=C(C(=O)OC)C1C(=O)OCc1nc2cc(C(=O)OC)ccc2c(=O)[nH]1 | inconclusive [inhibitor, single point] | – |
| CN(Cc1cccc(F)c1)C(=O)c1ccc(NS(=O)(=O)c2ccc3[nH]c(=O)[nH]c3c2)cc1 | inconclusive [inhibitor, single point] | – |
| O=C(Nc1nnc(-c2cccnc2)o1)c1ccccc1Cl | – | inactive: 8.46% |
| O=C(Nc1ccc(F)cc1)c1ccccc1NC(=O)C1CC=CCC1C(=O)O (stereo not given) | – | inactive: 6.8% |
| O=C(O)c1ccc(/C=C2/SC(=S)N(Cc3ccccc3)C2=O)cc1 | – | inactive: 1.5% |
| COc1ccc(N2CCN(c3oc(-c4ccc(OC)c(OC)c4)nc3C#N)CC2)cc1 | – | inactive: 10% |
| Cc1ccc(NC(=O)CSc2nnc(COc3ccc(C#N)cc3)n2-c2ccccc2)cc1C | inconclusive [inhibitor, partial curve] | – |
| C[C@H](NC(=O)C1CC(=O)N(c2ccc3c(c2)OCCO3)C1)C(=O)N1CCC(C(=O)O)CC1 (stereo not given in full) | – | inactive: -18.3% |
| CCCSc1nc2sc3c(c2c(=O)n1-c1ccc(OC)cc1)CCN(C)C3 | active: 7.38 µM | – |
| Cc1cc(OC(=O)c2c(F)cc(F)cc2F)nc(C)n1 | inconclusive [inhibitor, full curve, poor fit] | – |
| COc1ccc(-c2nc3ccccc3c(=O)n2CCN2CCOCC2)cc1 | – | inactive: 5.78% |
| Cc1ccc(C2(C)NC(=O)N(CC(=O)Nc3nc(-c4ccccn4)cs3)C2=O)cc1 (stereo not given) | active: 2.33 µM | – |
| CC(C)c1ccccc1NC(=O)CN1C(=O)c2ccccc2C1=O | – | inactive: 27.3% |
| Cc1ccc(C(NC(=O)Nc2ccccn2)C(Cl)(Cl)Cl)cc1F (stereo not given) | inconclusive [inhibitor, single point] | – |
| O=C(O)C1Cc2ccccc2CN1C(=O)CCl (stereo not given) | inconclusive [inhibitor, single point] | – |

| SMILES | Potency | activity change, negative = inhibition |
| --- | --- | --- |
| CCOc1ccccc1N(CC(=O)NCCSCc1ccco1)S(=O)(=O)c1ccccc1 | active: 8.28 µM | – |
| CN(CC(=O)Nc1ccc(F)cc1)C(=O)CCc1nc2ccccc2c(=O)[nH]1 | inconclusive [inhibitor, single point] | – |
| CCOc1ccccc1CN1C2CCC1CC(c1ccc(C)cc1)C2 (stereo not given) | inconclusive [inhibitor, single point] | – |
| CCOc1ccccc1NC(=S)NC1CCCCC1 | inconclusive [inhibitor, single point] | – |
| CCC(=O)Nc1cccc(NC(=O)c2cccc([N+](=O)[O-])c2C)c1 | – | inactive: 17.3% |
| O=C(CNc1cccc2ccccc12)N/N=C/c1cccc(Oc2ccccc2)c1 | inconclusive [inhibitor, partial curve, poor fit] | – |
| Cc1nn(-c2ccccc2)c(C)c1NC(=O)COc1ccc(C#N)cc1 | inconclusive [inhibitor, partial curve, poor fit] | – |
| O=C1C2CCN(CC2)C1Cc1ccccc1O (stereo not given) | inconclusive [inhibitor, partial curve, poor fit] | – |
| C=CCNc1nc(N)c([N+](=O)[O-])c(Nc2ccccc2OC)n1 | inconclusive [inhibitor, single point] | – |
| O=C(Nc1ccc(S(=O)(=O)Nc2nccs2)cc1)c1cc(-c2ccccn2)nc2ccccc12 | inconclusive [inhibitor, single point] | – |
| CC(C)CCC(O)(c1ccccc1)C(CN1CCOCC1)c1ccccc1 (stereo not given) | active: 2.94 µM | – |
| CCOC(=O)CC1(NC(=O)c2cc(COc3c(F)cccc3F)on2)CCCCC1 | – | inactive: -5.97% |
| CN(c1ccc(Cl)cc1)S(=O)(=O)c1nnc(NC(=O)C(C)(C)C)s1 | inconclusive [inhibitor, partial curve, poor fit] | – |
| COc1ccc(N=Nc2ccc(O)c(P(=O)(c3ccccc3)c3ccccc3)c2)cc1 | inconclusive [inhibitor, single point] | – |
| c1ccc(C(c2nnnn2Cc2ccco2)N2CCN(C3CCCC3)CC2)cc1 (stereo not given) | – | inactive: -3.5% |
| COc1ccc(NC(=O)c2c(C)nn(Cc3ccccc3)c2C)cc1S(=O)(=O)N(C)C | inconclusive [inhibitor, partial curve, poor fit] | – |
| CC(C)Cn1c(N)c(S(=O)(=O)c2cccs2)c2nc3ccccc3nc21 | inconclusive [inhibitor, partial curve, poor fit] | – |
| CCCC(=O)Nc1cc(C(=O)O)ccc1Sc1ccccc1 | – | inactive: -4.17% |
| COc1ccc2c(c1)N(C)/C(=C1/SC(=NCc3ccccc3)N(c3ccccc3)C1=O)S2 | inconclusive [inhibitor, single point] | – |
| COc1ccccc1N1CCN(C2CC(=O)N(c3ccc(Cl)cc3)C2=O)CC1 (stereo not given) | – | inactive: -11.8% |
| COc1cc(C(C)=O)ccc1OCCN1CCC(Cc2ccccc2)CC1 | inconclusive [inhibitor, single point] | – |
| COc1ccc(/C=N/NC(=O)c2cccnc2)cc1CSc1ccccn1 | – | inactive: 13.5% |
